Consider 82 compounds from publication PMC12040169 (PLOS Biology, 2025).

This is one part of the list.

The test has as its system T1, C. trachomatis L2/434/Bu expressing GFP (CTL2-GFP).
T1 construct: L2/434/Bu GFP intracellular growth in HeLa cells
Details: species or system HeLa; C. trachomatis total inclusion area by high-content imaging, normalised to DMSO. The settings on record: total inclusion area; 28.5 h, 10 µM; inhibitor. The procedure, abridged:
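Host cell viability was gauged from Hoechst-stained nuclei counts, while chlamydial growth was taken from total inclusion area and inclusion number per well. Cells were fixed and imaged by high-content microscopy once bulk GFP and resorufin fluorescence had been measured.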
Consider `O=C(O)CCC(=O)Nc1ccccc1Sc1ccc(Cl)cc1` [CBK287015], for which the “% of control remaining” value is reported as 100.612.

For `CCOC(=O)CSc1nc(C)cc(Oc2ccc(=O)n(C)n2)n1` [CBK269476], the “% of control remaining” value turned out to be 82.2899.

In the case of `CC1CCn2c3c(c4cccc1c42)CCNCC3` (stereo not shown) [CBK018012C], the “% of control remaining” value is 35.7751.

As for `Cc1cc(C)c2oc(-c3cccc(NC(=O)c4cccc(Cl)c4Cl)c3C)nc2c1` [CBK264005], the “% of control remaining” value was 103.296.

Consider `NNc1nc(-c2ccc(Br)cc2)nc2ccccc12` [CBK262860], for which the “% of control remaining” value was 86.7365.

`COc1cccc(-c2noc(Cn3cnc4sccc4c3=O)n2)c1` [CBK297127]: the “% of control remaining” value came to 85.5231.

For `CC1CCN(S(=O)(=O)c2ccc(S(=O)(=O)Nc3ncnn3C)cc2)CC1` [CBK306470], the “% of control remaining” value was found to be 43.6366.

`COc1cccc2c3c([nH]c12)CCCC3` [CBK000331]: the “% of control remaining” value was determined as 94.8234.

Consider `CC(C)[C@@H](CO)n1c(=O)[nH]c2ncc(-c3ccc(N4CCOCC4)cc3)nc21` [CBK064770], for which the “% of control remaining” value was found to be 130.085.

Consider `O=C(Cn1cc(Br)ccc1=O)NC1CCCN(Cc2ccccc2)C1` (stereo not shown) [CBK305668], for which the “% of control remaining” value was 106.298.

Consider `Nc1ncnc2sc3c(c12)CCN(C(=O)c1ccc2nccnc2c1)C3` [CBK295588], for which the “% of control remaining” value was 98.9635.

For the compound `Cc1ccc2[nH]c3c(c2c1)CCN(C=O)C31CCN(Cc2ccc(OC(F)F)cc2)CC1` [CBK040438], the “% of control remaining” value worked out at 84.4013.

Regarding `Cc1ccc(N2C(=O)N[C@@H]3CCN(C(=O)c4ccc(C(C)(C)C)cc4)[C@@H]3C2=O)cc1` [CBK289284], the “% of control remaining” value is given as 108.548.

Consider `Cn1c(C2CC(=O)N(c3ccc(Cl)cc3)C2)nc2ccccc21` (stereo not shown) [CBK287783], for which the “% of control remaining” value was 94.5974.

Consider `COc1ccc(NC(=O)CCC(=O)O)c(OC)c1` [CBK265451], for which the “% of control remaining” value was 84.446.

On to `CN(C)CCCNC(=S)NC(=O)c1ccccc1` [CBK265317], for which the “% of control remaining” value is on record as 93.1069.

For the compound `C/C(=C\C(=O)NC1CC(C)(C)NC(C)(C)C1)NC1CC(C)(C)NC(C)(C)C1` [CBK261982], the “% of control remaining” value came to 108.908.

As for `COc1ccc(OCCNC(=O)c2ccc(C)nc2NCCCn2ccnc2)cc1` [CBK076385], the “% of control remaining” value stood at 93.0256.

On to `CCn1ncc(S(=O)(=O)Nc2ccc3c(ccn3C)c2)c1C` [CBK282730], for which the “% of control remaining” value is given as 103.958.

Regarding `CCC(C)NC(=O)Cn1c(C2CCOCC2)cc2cc(C)cnc21` (stereo not shown) [CBK284756], the “% of control remaining” value is 101.61.

With `COCCn1c(=O)[nH]c2ncc(-c3ccsc3)nc21` [CBK064156], the “% of control remaining” value stood at 71.2519.

`Cc1ccc(S(=O)(=O)N(C)c2c(C)ccc(S(=O)(=O)N3CCN(C)CC3)c2C)cc1` [CBK265642]: the “% of control remaining” value turned out to be 104.346.

`CN1CCN(c2cc(-c3ccccc3N(C)C)nc3ccnn23)CC1` [CBK037158]: the “% of control remaining” value is recorded as 82.4864.

Consider `O=C(c1cscn1)N1C2CCC1CC(O)(c1ccco1)C2` (stereo not shown) [CBK284135], for which the “% of control remaining” value amounted to 78.5989.

In the case of `CS(=O)(=O)c1ccc(-c2cnc(N)c3ncccc23)cc1` [CBK067593], the “% of control remaining” value worked out at 104.36.

Turning to `O=C(NC(Cc1cnc[nH]1)C(=O)O)c1ccccc1` (stereo not shown) [CBK059018], the “% of control remaining” value is recorded as 118.141.

`CC1CCc2sc3ncnc(N4CCN(CCOC(c5ccccc5)c5ccccc5)CC4)c3c2C1` (stereo not shown) [CBK264884]: the “% of control remaining” value was 117.101.

For the compound `CC(C)(CSc1nnc(Nc2ccccc2)s1)NS(=O)(=O)c1ccc(Cl)cc1` [CBK266388], the “% of control remaining” value came out at 91.3777.

`O=S(=O)(c1ccc(F)c(Cl)c1)n1ccc2c(N3CCNCC3)nccc21` [CBK059059C]: the “% of control remaining” value is recorded as 61.2215.

On to `COc1cc(C=C2SC(NCC(=O)O)=NC2=O)ccc1OCc1ccc(Cl)cc1Cl` [CBK297555], for which the “% of control remaining” value was determined as 35.5148.

As for `FC(F)(F)c1nnc2ccc(-n3ccnc3)nn12` [CBK020041], the “% of control remaining” value stood at 77.6564.

On to `Cc1ccc(S(=O)(=O)Nc2c(C(=O)O)[nH]c3ccccc23)cc1` [CBK049880], for which the “% of control remaining” value is 88.3531.

With `N#CCCSc1nnc(-c2cccnc2)n1Cc1ccccc1` [CBK267526], the “% of control remaining” value stood at 98.5328.

In the case of `Cc1c(NC2CCN(c3ccc(C#N)cc3)C2=O)cnn1C1CCCC1` (stereo not shown) [CBK304735], the “% of control remaining” value turned out to be 70.7531.

With `O=C(Cn1c(-c2cccs2)cc2cccnc21)NCC1CC1` [CBK282553], the “% of control remaining” value is on record as 111.31.

On to `O=c1[nH]c2ccccc2n1CCCN1CCC(Cc2ccccc2)CC1` [CBK138318], for which the “% of control remaining” value was determined as 90.6352.

On to `COC(=O)CCc1ccc(Oc2ncc(C(F)(F)F)cc2Cl)cc1` [CBK161628], for which the “% of control remaining” value came out at 87.2851.

Take `CCOc1ccc(S(=O)(=O)NCc2ccncc2)cc1NC(C)=O` [CBK269527]: the “% of control remaining” value is 86.9222.

In the case of `CCOC(=O)C1CCCN1Cc1ccccc1` (stereo not shown) [CBK278278G], the “% of control remaining” value was found to be 80.4345.

For the compound `Cc1ccc(OCc2cc(C)on2)c(Br)c1` [CBK002837], the “% of control remaining” value is 88.3084.

For `COc1ccc(CCNC(=O)c2ccccc2N(C)S(C)(=O)=O)cc1` [CBK266833], the “% of control remaining” value came out at 107.686.

For the compound `COc1ccc2[nH]cc(CCNC(=O)CCCN(C)C)c2c1` [CBK116202], the “% of control remaining” value was 106.981.

For `Cc1nc(NC(=N)Nc2ccccc2C(F)(F)F)[nH]c(=O)c1Cc1ccccc1` [CBK269083], the “% of control remaining” value worked out at 98.3913.

Consider `O=C(Cc1cccs1)N1CCC(O)(c2cccnc2)CC1` [CBK283501], for which the “% of control remaining” value amounted to 82.8613.

Take `COC(=O)c1c(NC(=O)CC2Nc3ccccc3NC2=O)sc2c1CCC2` (stereo not shown) [CBK269307A]: the “% of control remaining” value came to 100.328.

In the case of `O=C(NCC(=O)N1CCc2ccccc2C1)C1CCCCC1` [CBK306049], the “% of control remaining” value was 59.7058.

Take `S=c1nc[nH]cc1-c1ccc(Br)cc1` [CBK005833]: the “% of control remaining” value was 86.7205.

Consider `Cc1cc2nc(-c3ccccc3)[nH]c2cc1C` [CBK086484], for which the “% of control remaining” value is given as 96.5819.

`Cc1ccc(NC2=NC3(N=C(N)N2)C(=O)N(C)c2ccccc23)cc1` (stereo not shown) [CBK270157]: the “% of control remaining” value amounted to 76.1599.

As to `Cc1nn(C)c(Cl)c1S(=O)(=O)Nc1ccnn1C` [CBK062072], the “% of control remaining” value was found to be 100.351.

As for `C[C@@H]1CN(C(=O)c2cncn2C)C[C@H](C)O1` [CBK200370], the “% of control remaining” value was 118.019.

As for `CCNc1nccnc1-c1ccc(O)cc1` [CBK088589], the “% of control remaining” value was determined as 117.886.

As for `Cc1cc(NC(=O)CN2CCC(CSc3ccccc3)C2)no1` (stereo not shown) [CBK306136], the “% of control remaining” value came out at 104.362.

`COc1ccc(COc2nc3c(c(=O)n(C)c(=O)n3C)n2Cc2ccc(Cl)c(Cl)c2)cc1` [CBK268779]: the “% of control remaining” value is given as 90.2253.

Take `O=S(=O)(c1cccc2nsnc12)N1CCN(C2CCCCC2)CC1` [CBK268173]: the “% of control remaining” value worked out at 81.5093.

As to `CCC(=O)Nc1ccc(O)cc1C(=O)O` [CBK126818], the “% of control remaining” value amounted to 89.6635.

In the case of `Cc1cc(NS(=O)(=O)c2ccc(C(C)C)cc2)n[nH]1` [CBK044646], the “% of control remaining” value came to 94.5558.

`COc1ccc(Oc2cncc(OC3CCN(Cc4ccc(Cl)c(Cl)c4)C3)n2)cc1OC` (stereo not shown) [CBK084391]: the “% of control remaining” value amounted to 71.2239.

As for `CCOC(=O)N1CCN(CC(O)COc2cc(C)c(Cl)c(C)c2)CC1` (stereo not shown) [CBK033833C], the “% of control remaining” value was 96.5406.

With `OC(CN1CCC(O)(c2ccc3c(c2)OCO3)CC1)c1ccc2c(c1)CCC2` (stereo not shown) [CBK286326], the “% of control remaining” value turned out to be 91.6433.

As to `Cc1cccc(-c2n[nH]/c(=N/C(=O)c3ccccc3F)s2)c1` [CBK287957], the “% of control remaining” value stood at 102.382.

On to `N#CCCCN1CCC(Oc2nccnc2OCc2ccc(Br)cc2F)CC1` [CBK153647], for which the “% of control remaining” value amounted to 85.2768.

As to `O=C(O)c1cccc(Sc2cc(C(F)(F)F)ccn2)c1` [CBK093590], the “% of control remaining” value is recorded as 84.5082.

For `CC(=O)c1cccc(NC(=O)CN(c2cc(Cl)ccc2Cl)S(=O)(=O)c2ccc(C)cc2)c1` [CBK268897], the “% of control remaining” value was 52.088.

Consider `COc1cccc(-c2nccnc2C2CCCN(S(=O)(=O)c3ccc(F)cc3)C2)c1` (stereo not shown) [CBK286138], for which the “% of control remaining” value was 79.6616.

Take `O=C(c1cc(C2CC2)n[nH]1)N1CCn2cc(C(F)(F)F)nc2C1` [CBK284749]: the “% of control remaining” value worked out at 85.4948.

With `CC1CCN(C(=O)C2C3CCC4(CC(=O)c5ccccc5O4)C32)CC1` (stereo not shown) [CBK284872], the “% of control remaining” value is reported as 112.87.

As for `COc1cccc2cc(C(=O)NCC3COc4ccccc4O3)oc12` (stereo not shown) [CBK149791], the “% of control remaining” value is recorded as 95.5495.

On to `CCC(C)(C)c1ccc(S(=O)(=O)Nc2n[nH]cc2Br)cc1` [CBK043734], for which the “% of control remaining” value came out at 92.8279.

For the compound `CCN(CC)C(=O)c1ccsc1NS(=O)(=O)c1cccc2cccnc12` [CBK042317], the “% of control remaining” value is 88.5709.

For the compound `CC(C)(C)OC(=O)N1CCN(Cc2ncc(-c3ccccc3)o2)CC1` [CBK306281], the “% of control remaining” value is reported as 61.1438.

Turning to `O=S(=O)(c1cccc(C(F)(F)F)c1)n1ccc2c(CN3CCC[C@@H]3CO)cccc21` [CBK116167T], the “% of control remaining” value is 73.9171.

As to `CCCNc1cc(C)c(C#N)c2nc3ccccc3n12` [CBK288097], the “% of control remaining” value is 127.374.

On to `O=C(O)C1CCCN(C(=O)NCc2cccc(C(F)(F)F)c2)C1` (stereo not shown) [CBK161345], for which the “% of control remaining” value amounted to 91.2962.

Regarding `O=C(CSc1nc2ccccc2s1)c1cccc([N+](=O)[O-])c1` [CBK262130], the “% of control remaining” value came to 110.22.

On to `CCCCOC(=O)c1ccccc1NC(=O)NCCc1cccs1` [CBK043573], for which the “% of control remaining” value was found to be 90.4442.

On to `CC(=O)Nc1nonc1OCCOc1nonc1NC(C)=O` [CBK020227], for which the “% of control remaining” value was 64.8809.

For the compound `O=C(CSc1nnnn1-c1cccnc1)NC1CCCCCC1` [CBK270092], the “% of control remaining” value is on record as 114.165.

In the case of `Cn1c(=O)n(Cc2ccc(Cl)cc2)c2cccnc21` [CBK282333], the “% of control remaining” value came to 97.7607.

Turning to `CC(NC(=O)c1ncoc1-c1ccccc1F)c1ccccn1` (stereo not shown) [CBK282402], the “% of control remaining” value was determined as 102.778.

Consider `CCCCNC(=S)N[C@H]1CC[C@@]2(Cc3ccc(OC)cc3)CCN(C)[C@H]2C1` [CBK004258], for which the “% of control remaining” value amounted to 40.0855.

In the case of `O=C(Nc1cccc(C(F)(F)F)c1)N[C@H]1[C@H](O)[C@@H](N2CCCC2)[C@@H]2OC[C@H]1O2` [CBK288828], the “% of control remaining” value is listed as 100.57.
